Measurements reported in a compilation of properties of binary mixtures (doi:10.1021/je300384g).
The densities may have been worked out from excess volumes.

Test: xn = mol fraction of the nth substance listed
Conditions: 101 kPa

CCCCO + CCCC[N+]1(C)CCCC1.N#C[N-]C#N
x1 = 1
Conditions | mass density [kg/m3]
298.15 K | 805.7
313.15 K | 794.1
328.15 K | 782.1

CCCC[N+]1(C)CCCC1.N#C[N-]C#N + CCCO
mass density [kg/m3]
Conditions | 298.15 K | 313.15 K | 328.15 K
x2 = 0 | 1013.4 | 1005.1 | –
x2 = 0.0669 | 1008.9 | 1000.5 | 992.2
x2 = 0.1894 | 999.5 | 990.9 | 982.5
x2 = 0.2912 | – | 981.2 | 972.6
x2 = 0.3998 | 977.5 | – | 959.9
x2 = 0.514 | – | 952.2 | –
x2 = 0.597 | 946.6 | 937.3 | 927.9
x2 = 0.6944 | 925.3 | 915.5 | –
x2 = 0.8002 | 895 | – | 874.4
x2 = 0.894 | 858.7 | 847.7 | 836.6
x2 = 0.9437 | 834.3 | 822.9 | 811.2

CCCO + CCCC[N+]1(C)CCCC1.N#C[N-]C#N
x1 = 1
Conditions | mass density [kg/m3]
298.15 K | 799.7
313.15 K | 787.4
328.15 K | 774.8

CCCC[N+]1(C)CCCC1.N#C[N-]C#N + CC(C)O
mass density [kg/m3]
Conditions | 298.15 K | 313.15 K | 328.15 K
x2 = 0 | 1013.4 | 1005.1 | 996.8
x2 = 0.0466 | – | 1001.4 | 993.1
x2 = 0.0896 | 1006.5 | – | 989.7
x2 = 0.1849 | 998.1 | 989.5 | 981.1
x2 = 0.2967 | 986.6 | 977.9 | 969.3
x2 = 0.4039 | 973 | 964.1 | 955.4
x2 = 0.5056 | 957.3 | – | 939.2
x2 = 0.6018 | 938.7 | 929.3 | 919.9
x2 = 0.6997 | 914.9 | 905.1 | 895.2
x2 = 0.8066 | 880.8 | – | 859.7
x2 = 0.892 | – | 834 | –
x2 = 0.9461 | – | 805 | 792.6

CCCC[N+]1(C)CCCC1.N#C[N-]C#N + CCCCO
mass density [kg/m3]
Conditions | 298.15 K | 313.15 K | 328.15 K
x2 = 0 | – | – | 996.8
x2 = 0.0464 | 1009.7 | 1001.3 | 993
x2 = 0.0945 | 1005.8 | 997.3 | 989
x2 = 0.1898 | 997 | 988.4 | –
x2 = 0.299 | 985 | 976.3 | 967.7
x2 = 0.4012 | 971.7 | 962.8 | 954
x2 = 0.4989 | 956.5 | 947.4 | 938.4
x2 = 0.5996 | 937.7 | 928.5 | –
x2 = 0.6947 | 916.4 | 906.8 | –
x2 = 0.7995 | 887 | – | 866.7
x2 = 0.8965 | 853.1 | 842.4 | 831.6
x2 = 0.9464 | 832.3 | 821.2 | 809.9

CC(C)O + CCCC[N+]1(C)CCCC1.N#C[N-]C#N
x1 = 1
Conditions | mass density [kg/m3]
313.15 K | 768.5
328.15 K | 754.6
